# Data as given in PubChem BioAssay AID485294 (National Center for Advancing Translational Sciences (NCATS), 2010).
# In all, about 370,000 compounds went through this assay and about 150 (0.041%) were called active. Inconclusive results, whose numbers are uncertain, are shown with a selection of clear calls. Calls follow the shape of the dose curve; as a rule, active = well fitted inhibition curve with a large enough effect; inconclusive = small, poorly fitted or top-dose-only effect; inactive = flat fitted curve, though single readings scatter. No potency is given beside an inconclusive call; the fits are too rough.
# Biological target: Beta-lactamase (Escherichia coli (strain K12)) (UniProt P00811)
# Assay: qHTS Inhibitors of AmpC Beta-Lactamase (assay with detergent); also: nearly all actives have a fitted effect of over 25% in size;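 as to activity change, negative = inhibition: 0% = no-compound wells and -100% = no-enzyme wells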
# Details: AmpC hydrolysis of nitrocefin, absorbance 480 nm, 0.01% Triton; activity change, negative = inhibition: at 114 µM (top of the series)
# In short: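 20 mM phosphate pH 7.0 + 0.01% (detergent screen) or 0.0001% Triton X-100; 5.3 nM AmpC reagent; cpd preinc 15 min RT; nitrocefin (800 uM stock) to start; A480 q20 s × 4 min; Activity was normalised to no-enzyme and no-compound control wells.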
# Potency is read from the fitted curve at half-maximal effect; tags tell the direction and shape of the fitted curve.
# Chain of UniProt P00811 (P00811 whole entry, looked up): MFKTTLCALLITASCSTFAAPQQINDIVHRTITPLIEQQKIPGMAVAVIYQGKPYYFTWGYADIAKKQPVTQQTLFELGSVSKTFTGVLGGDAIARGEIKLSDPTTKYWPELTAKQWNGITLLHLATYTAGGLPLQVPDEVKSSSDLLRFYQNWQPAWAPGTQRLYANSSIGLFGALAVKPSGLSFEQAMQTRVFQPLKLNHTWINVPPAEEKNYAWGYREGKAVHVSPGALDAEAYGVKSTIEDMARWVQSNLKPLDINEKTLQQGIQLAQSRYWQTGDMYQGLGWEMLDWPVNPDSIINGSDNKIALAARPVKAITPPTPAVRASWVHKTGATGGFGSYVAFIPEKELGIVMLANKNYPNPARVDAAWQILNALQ
SMILES,Potency,"activity change, negative = inhibition"
Cc1ccc(CSCC(=O)N(CCC(C)C)c2c(N)n(Cc3ccccc3)c(=O)[nH]c2=O)cc1,"inconclusive [inhibitor, full curve, poor fit]",
COCc1c(C(=O)N2CCN(c3ncccn3)CC2)oc2ccccc12,"inconclusive [inhibitor, full curve, poor fit]",
COc1ccc(NC(=O)CCNS(=O)(=O)c2cccc(C(C)=O)c2)cc1S(N)(=O)=O,,inactive: -13.7%
CCC(=O)OCc1cc(=O)oc2ccc3ccccc3c12,"inconclusive [inhibitor, partial curve, poor fit]",
CCOc1ccc(OCC)c(NC(=O)C(NS(=O)(=O)c2cccs2)c2ccccc2)c1 (stereo not given),,inactive: 12.8%
CC1CCC(NC(=O)C2c3ccccc3C(=O)N2Cc2cccs2)CC1 (stereo not given),,inactive: -0.257%
CC1Cc2ccccc2N1C(=O)NC1CC(=O)N(c2ccc3c(c2)OCCO3)C1 (stereo not given),,inactive: -4.85%
CC(SC#N)C(=O)C12CC3CC(CC(C3)C1)C2 (stereo not given),,inactive: 4.61%
CCc1nnc(NC(=O)CCc2ccccc2OC)s1,"inconclusive [inhibitor, single point]",
COc1ccc(/C=N/Nc2cc(C)nc3c(C)cccc23)cc1,,inactive: 7.23%
Cc1cc(C)cc(N(C(=O)c2ccccn2)C(C(=O)NC2CCCCC2)c2ccncc2)c1 (stereo not given),"inconclusive [inhibitor, partial curve, poor fit]",
CNC(=O)C(C#N)(Cc1cc(C(C)=O)ccc1OC)Cc1cc(C(C)=O)ccc1OC,,inactive: -0.686%
Cc1cccc(NC(=O)CSc2nnc(C)c(=O)n2N)c1C,"inconclusive [inhibitor, full curve, poor fit]",
C[C@H](NC(=O)N1C[C@H]2C[C@@H](C1)c1cccc(=O)n1C2)C(=O)Nc1cccc(F)c1,"inconclusive [inhibitor, full curve, poor fit]",
COc1ccc(S(=O)(=O)N2CCCC(C(=O)NCCC3=CCCCC3)C2)cc1 (stereo not given),"inconclusive [inhibitor, full curve, poor fit]",
O=C(O)CC1Sc2nc3ccccc3n2C1=O (stereo not given),"inconclusive [inhibitor, full curve, poor fit]",
Cc1cc(C)n2nc(-c3ccc(Br)cc3)cc2n1,"inconclusive [inhibitor, full curve, poor fit]",
Cc1nn(CCCC(=O)NCc2ccccc2)c(=O)c2cc3sccc3n12,"inconclusive [inhibitor, single point]",
c1ccc(CSc2nnc3ccc(-c4ccncc4)nn23)nc1,"inconclusive [inhibitor, full curve, poor fit]",
O=C(c1ccccc1)c1cccs1,,inactive: -5.38%
Nc1c(N2CCN(c3ccccc3)CC2)c2ccccc2oc1=O,"inconclusive [inhibitor, partial curve, poor fit]",
CC(C)(CO)C(O)C(=O)NCCC#N (stereo not given),"inconclusive [inhibitor, full curve]",
O=C(Cc1ccc(F)cc1)NCCS(=O)(=O)N1CCN(c2ccccc2)CC1,"inconclusive [inhibitor, full curve, poor fit]",

SMILES,Potency,"activity change, negative = inhibition"
COc1ccc(NS(=O)(=O)c2cccc(NC(=O)CNC(C)=O)c2)cc1,"inconclusive [inhibitor, single point]",
CCOC(=O)c1[nH]c2ccccc2c1NC(=O)Nc1ccc(OC)cc1,,inactive: 1.05%
COc1ccc(CCNC(=O)CC2SC(=NCCc3ccccc3)NC2=O)cc1 (stereo not given),"inconclusive [inhibitor, full curve, poor fit]",
O=C1CC(c2ccccc2)CC2=C1C=Nc1ccccc1N2 (stereo not given),"inconclusive [inhibitor, full curve, poor fit]",
Cc1ccc(/C(O)=C2/C(=O)C(=O)N(c3ccccn3)C2c2ccc([N+](=O)[O-])cc2)cc1 (stereo not given),"inconclusive [inhibitor, full curve, poor fit]",
CSc1cc(-c2ccc(Cl)cc2)c(C(=O)NN)s1,,inactive: -5.69%
CCc1ccc(C2CC(c3ccc(F)cc3)Nc3nc(N)nn32)cc1 (stereo not given),,inactive: 9.97%
CCOC(=O)N1CCC(NC(=O)COc2cc(=O)n(C)c3ccccc23)CC1,"inconclusive [inhibitor, full curve, poor fit]",
CCOC(=O)c1sc(N)c(C(=O)OCC)c1COC(=O)C1CC(=O)N(Cc2ccco2)C1 (stereo not given),,inactive: -5.46%
COc1ccc(CNC(=O)C(=O)NCC2CCCO2)cc1 (stereo not given),"inconclusive [inhibitor, single point]",
CCc1nnc(NC(=O)Cc2ccc(OCc3c(C)noc3C)cc2)s1,"inconclusive [inhibitor, full curve, poor fit]",
CCCn1c(SCC(=O)Nc2ccccc2-c2ccccc2)nnc1-c1ccoc1C,"inconclusive [inhibitor, partial curve]",
O=C(NNC(=O)c1cccc2ccccc12)c1ccco1,"inconclusive [inhibitor, single point]",
COc1cccc(CN2CCN(C(=O)c3cccc4ccccc34)CC2)c1OC,,inactive: 5.99%
CC1(C)Cc2c(cnn2-c2cccc(F)c2)C(NC(=O)CCN2CCCC2=O)C1 (stereo not given),"inconclusive [inhibitor, full curve]",
COc1ccc2c(c1)N1CCN=C1N2C,"inconclusive [inhibitor, partial curve, poor fit]",
CCC(=O)c1ccc(OCC(O)CN2CCN(S(=O)(=O)N3CCCCC3)CC2)cc1 (stereo not given),"inconclusive [inhibitor, partial curve]",
CCCC(=O)N(c1ccc2oc(C)c(C(C)=O)c2c1)S(=O)(=O)c1ccc(CC)cc1,,inactive: -7.07%
Nc1ccc(CSc2ccc(Cl)cc2)cc1,,inactive: 7.82%
O=C(CN1CCOCC1)NC1CC2CCC1C2 (stereo not given),"inconclusive [inhibitor, partial curve, poor fit]",
COC(=O)c1c(-c2ccc(Cl)cc2)noc1N1CCN(c2cc(C)ccc2C)CC1,,inactive: -8.2%
Cc1ccccc1OCC(=O)OC(C)CN1CCN(C)CC1 (stereo not given),"inconclusive [inhibitor, full curve, poor fit]",
